# Assay results from the supplement of paper PMC12645437, “Orthogonal IMiD-Degron Pairs Induce Selective Protein Degradation in Cells” (ACS Chemical Biology, 2025).
# This is one part of the list.
# B1: Q9UKT9 (peptide)
# chain: FVCDQCGAQFTQKGNLLRHIKL
# B2: Q9UKT9 (peptide)
# chain: FACEICGAMFTQKGNLLRHIKL
# B3: Q9UKT9 (peptide)
# chain: LWCEICGFACTQKGNLLRHIKL
# B4: Q9UKT9 (peptide)
# chain: LVCPICGFACTQKGNLLRHIKL
# B5: Q9UKT9 (peptide)
# chain: FECNICGAWFTQKGNLLRHIKL
# B6: Q9UKT9 (peptide)
# chain: FICDVCGAAFTQKGNLLRHIKL
# B7: Q9UKT9 (peptide)
# chain: FMCDVCGARFTQKGNLLRHIKL
# B8: Q9UKT9 (peptide)
# chain: FQCDICGAMFTQKGNLLRHIKL
# B9: Q9UKT9 (peptide)
# chain: FRCPICGRFFTQKGNLLRHIKL
# B10: Q9UKT9 (peptide)
# chain: FFCPVCGAEFTQKGNLLRHIKL
# B11: Q9UKT9 (peptide)
# chain: FTCSVCGHKFTQKGNLLRHIKL
# B12: Q9UKT9 (peptide)
# chain: FLCPICGRVFTQKGNLLRHIKL
# B13: Q9UKT9 (peptide)
# chain: FGCNICGAWFTQKGNLLRHIKL
# B14: Q9UKT9 (peptide)
# chain: FCCDVCGAYFTQKGNLLRHIKL
# B15: Q9UKT9 (peptide)
# chain: FECDQCGACFTQKGNLLRHIKL
# B16: Q9UKT9 (peptide)
# chain: FSCNICGAVFTQKGNLLRHIKL
# B17: Q9UKT9 (peptide)
# chain: FKCDVCGASFTQKGNLLRHIKL
# B18: Q9UKT9 (peptide)
# chain: FYCEICGRKFTQKGNLLRHIKL
# B19: Q9UKT9 (peptide)
# chain: FDCEICGAGFTQKGNLLRHIKL
# B20: Q9UKT9 (peptide)
# chain: FDCEICGHLFTQKGNLLRHIKL
# B21: Q9UKT9 (peptide)
# chain: FSCPQCGACFTQKGNLLRHIKL
# B22: Q9UKT9 (peptide)
# chain: LDCPICGFGCTQKGNLLRHIKL
# B23: Q9UKT9 (peptide)
# chain: FLCPQCGAKFTQKGNLLRHIKL
# B24: Q9UKT9 (peptide)
# chain: FKCSVCGHEFTQKGNLLRHIKL
# B25: Q9UKT9 (peptide)
# chain: FVCNQCGAHFTQKGNLLRHIKL
# B26: Q9UKT9 (peptide)
# chain: FSCSVCGHAFTQKGNLLRHIKL
# B27: Q9UKT9 (peptide)
# chain: LFCPICGFWCTQKGNLLRHIKL
# B28: Q9UKT9 (peptide)
# chain: FKCDICGAIFTQKGNLLRHIKL
# B29: Q9UKT9 (peptide)
# chain: FLCPICGHFFTQKGNLLRHIKL
# B30: Q9UKT9 (peptide)
# chain: FLCPICGRLFTQKGNLLRHIKL
# B31: Q9UKT9 (peptide)
# chain: FVCDQCGAIFTQKGNLLRHIKL
# B32: Q9UKT9 (peptide)
# chain: FYCEQCGAIFTQKGNLLRHIKL
# B33: Q9UKT9 (peptide)
# chain: LTCNQCGFRCTQKGNLLRHIKL
# B34: Q9UKT9 (peptide)
# chain: FYCPVCGAFFTQKGNLLRHIKL
# B35: Q9UKT9 (peptide)
# chain: FSCNICGAKFTQKGNLLRHIKL
# B36: Q9UKT9 (peptide)
# chain: FVCEICGAPFTQKGNLLRHIKL
# B37: Q9UKT9 (peptide)
# chain: FTCSVCGHHFTQKGNLLRHIKL
# B38: Q9UKT9 (peptide)
# chain: FFCPICGAAFTQKGNLLRHIKL
# B39: Q9UKT9 (peptide)
# chain: LGCPICGFMCTQKGNLLRHIKL
# B40: Q9UKT9 (peptide)
# chain: FSCSVCGHIFTQKGNLLRHIKL
# B41: Q9UKT9 (peptide)
# chain: LTCEICGFECTQKGNLLRHIKL
# B42: Q9UKT9 (peptide)
# chain: LNCPICGFVCTQKGNLLRHIKL
# B43: Q9UKT9 (peptide)
# chain: FTCNQCGRPFTQKGNLLRHIKL
# B44: Q9UKT9 (peptide)
# chain: FRCNVCGAGFTQKGNLLRHIKL
# B45: Q9UKT9 (peptide)
# chain: FKCPQCGAGFTQKGNLLRHIKL
# B46: Q9UKT9 (peptide)
# chain: FQCNICGAQFTQKGNLLRHIKL
# B47: Q9UKT9 (peptide)
# chain: FTCPICGHIFTQKGNLLRHIKL
# B48: Q9UKT9 (peptide)
# chain: FQCSVCGHWFTQKGNLLRHIKL
# B49: Q9UKT9 (peptide)
# chain: FYCEICGHDFTQKGNLLRHIKL
# B50: Q9UKT9 (peptide)
# chain: LFCEICGFACTQKGNLLRHIKL
# Target: no compound (DMSO)
# Test: log2 fold change of degron read counts, EGFP-low vs EGFP+ sorted cells; higher = lower degron-EGFP level without compound (poor expression or instability)
# Settings: compound: DMSO control; 18 h
# 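Note: jurkat cells carrying a lentiviral library of mutant zinc finger degrons fused to EGFP plus mCherry, mCherry+ cells FACS sorted, degron abundance counted by next-generation sequencing.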
row,Sequence,log2 fold change of degron read counts
1,B1,-1.25
2,B2,-1.37
3,B3,1.29
4,B4,0.747
5,B5,-0.339
6,B6,-1.28
7,B7,-1.23
8,B8,-1.16
9,B9,0.753
10,B10,-0.202
11,B11,0.0406
12,B12,0.233
13,B13,0.381
14,B14,-0.255
15,B15,-2.57
16,B16,-0.479
17,B17,-2.47
18,B18,-1.02
19,B19,-1.48
20,B20,0.856
21,B21,-0.796
22,B22,0.412
23,B23,-1.37
24,B24,-1
25,B25,-0.651

row,Sequence,log2 fold change of degron read counts
1,B26,-0.487
2,B27,2.38
3,B28,-0.617
4,B29,0.774
5,B30,0.643
6,B31,-0.994
7,B32,0.29
8,B33,0.443
9,B34,1.47
10,B35,-0.274
11,B36,-1.17
12,B37,-0.465
13,B38,0.316
14,B39,1.01
15,B40,-0.0286
16,B41,-1.14
17,B42,0.674
18,B43,-0.293
19,B44,-0.728
20,B45,-0.828
21,B46,-0.457
22,B47,0.227
23,B48,-0.11
24,B49,-1.12
25,B50,0.705
